The text below walks through data of the BET-seq Pho4 binding data (Le et al. 2018).

This is one part of the list. The energies were worked out here from pooled read counts, against the library average; single values are noisy.

This test addresses T1, Pho4 (S. cerevisiae) (UniProt P07270).
T1 sequence: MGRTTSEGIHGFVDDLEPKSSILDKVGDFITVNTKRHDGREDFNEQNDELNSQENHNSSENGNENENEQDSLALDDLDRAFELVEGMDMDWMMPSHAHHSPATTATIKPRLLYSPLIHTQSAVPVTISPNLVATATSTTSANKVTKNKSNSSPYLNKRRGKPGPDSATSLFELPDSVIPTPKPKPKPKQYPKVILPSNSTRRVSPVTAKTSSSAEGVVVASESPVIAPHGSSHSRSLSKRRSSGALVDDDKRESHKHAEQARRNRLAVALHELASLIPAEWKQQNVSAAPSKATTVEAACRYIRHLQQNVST
Briefly: relative binding free energy (BET-seq); higher = weaker binding. The following applies: reference: library average.
Turning to CAAGGCACGTGGTCGG, the “relative binding free energy” value is -0.3 kcal/mol.
As for GGCAGCACGTGGGCGG, the figure is -0.25 kcal/mol.
As for AATTCCACGTGTGGGT, the figure is 0.15 kcal/mol; as for GGTGGCACGTGCGAGG, 0.01 kcal/mol; as for AGATGCACGTGGGGGA, -0.21 kcal/mol.
Turning to GTGGGCACGTGCGAAT, the “relative binding free energy” value is -0.12 kcal/mol.
Under TAAGTCACGTGTACGT stands 0.06 kcal/mol.
Under TTTGACACGTGGTGTG stands -0.03 kcal/mol; under GTTGGCACGTGGGTCA, -0.14 kcal/mol; under ATTAGCACGTGATAGT, 0.06 kcal/mol.
Under TATTACACGTGTGATG stands 0.2 kcal/mol; under GCTTTCACGTGTGATG, 0.41 kcal/mol.
With TGTGTCACGTGGCTCG, the “relative binding free energy” value came to 0.06 kcal/mol.
Under TCTTGCACGTGTCGTT stands 0.2 kcal/mol; under GGGGCCACGTGGGGCT, -0.16 kcal/mol; under AGGTACACGTGGTTAT, 0.05 kcal/mol.
In the case of GGGGCCACGTGGGCAG, the “relative binding free energy” value is -0.32 kcal/mol.
On to CGGATCACGTGGTTGG, for which the “relative binding free energy” value worked out at 0.02 kcal/mol.
As for CTGATCACGTGGTATT, the figure is 0.02 kcal/mol; as for TACTTCACGTGTTTGG, 0.3 kcal/mol.
Under CGGGCCACGTGTTTTG stands -0.05 kcal/mol; under TTGCGCACGTGGACGT, -0.09 kcal/mol.
As for CGCGTCACGTGGTTTG, the figure is 0.07 kcal/mol.
In the case of GTAAGCACGTGGGGGC, the “relative binding free energy” value is -0.19 kcal/mol.
Under ATCGGCACGTGCTGGT stands -0.12 kcal/mol; under GGTCACACGTGTTTGG, 0.04 kcal/mol.
As for TGATTCACGTGAGGTA, the “relative binding free energy” value amounted to 0.36 kcal/mol.
As for GAAATCACGTGAGCGG, the figure is 0.57 kcal/mol; as for AATATCACGTGGGTGC, -0.03 kcal/mol; as for GTTGACACGTGTGTGT, 0.14 kcal/mol.
Under TCTCGCACGTGTTGTG stands -0.14 kcal/mol; under TTGAGCACGTGTATTA, -0.15 kcal/mol; under TTGTACACGTGTCGGT, 0.17 kcal/mol.
Under AGATGCACGTGATTTT stands 0.12 kcal/mol; under GTGGGCACGTGGTTAG, 0.02 kcal/mol; under TGTGCCACGTGGCGGT, -0.23 kcal/mol.
AGGGACACGTGGCGGA: the “relative binding free energy” value was -0.15 kcal/mol.
Consider AGATACACGTGGGTTG, for which the “relative binding free energy” value was -0.15 kcal/mol.
ATGGTCACGTGTGCTC: the “relative binding free energy” value was determined as 0.13 kcal/mol.
As to ATGGCCACGTGGGTAT, the “relative binding free energy” value is -0.16 kcal/mol.
Take AGTGGCACGTGTACAG: the “relative binding free energy” value is -0.12 kcal/mol.
For the sequence GTCTGCACGTGAGGTA, the “relative binding free energy” value is 0.19 kcal/mol.
As for AGGTACACGTGTTGTC, the figure is 0.06 kcal/mol; as for TTTATCACGTGTTTTC, 0.31 kcal/mol.
With TAGGGCACGTGCGGTC, the “relative binding free energy” value was -0.23 kcal/mol.
Under AAGGGCACGTGAGGTC stands 0.17 kcal/mol.
Under GGGAGCACGTGGTAGG stands -0.18 kcal/mol; under TGGGGCACGTGTTTTG, -0.03 kcal/mol; under GGATTCACGTGTTTTT, 0.27 kcal/mol.
With CTAGGCACGTGTTAAG, the “relative binding free energy” value was -0.05 kcal/mol.
As for AGGGCCACGTGGGCGA, the figure is -0.32 kcal/mol; as for GGACGCACGTGTTAGG, -0.07 kcal/mol.
As to TTTAACACGTGGAAGT, the “relative binding free energy” value stood at 0.09 kcal/mol.
Take CGTGGCACGTGGAAAT: the “relative binding free energy” value came out at 0.14 kcal/mol.
As to CTTTGCACGTGGTGCG, the “relative binding free energy” value was -0.07 kcal/mol.
Under GGTTACACGTGAGTAG stands 0.34 kcal/mol.
Turning to GTGTACACGTGTGCAG, the “relative binding free energy” value was -0.02 kcal/mol.
Under TCTGGCACGTGACGGA stands 0.11 kcal/mol.
As for TGGGTCACGTGGATAC, the figure is 0.08 kcal/mol.
Under TGTCTCACGTGTAGGC stands 0.2 kcal/mol; under CTTTGCACGTGAGGAT, 0.21 kcal/mol; under GTAAGCACGTGGAGAG, 0.03 kcal/mol.
With TGTGTCACGTGTGACT, the “relative binding free energy” value was determined as 0.06 kcal/mol.
As for CGTTGCACGTGCGTTA, the figure is -0.11 kcal/mol.
As for GCAGGCACGTGGAAGG, the figure is -0.06 kcal/mol.
Under GATGTCACGTGCTGGT stands 0.13 kcal/mol; under GGAGACACGTGGCGTT, -0.02 kcal/mol; under GTGTTCACGTGAGTAG, 0.38 kcal/mol.
With CGTTTCACGTGGTCTT, the “relative binding free energy” value stood at 0.24 kcal/mol.
As for TTAAACACGTGGGCTG, the figure is -0.14 kcal/mol; as for AGCTTCACGTGGTCGT, 0.16 kcal/mol.
Regarding TAGGGCACGTGCAATG, the “relative binding free energy” value is -0.1 kcal/mol.
Take AGGTACACGTGAGGTT: the “relative binding free energy” value is 0.34 kcal/mol.
On to TAGGGCACGTGGAACG, for which the “relative binding free energy” value was -0.15 kcal/mol.
On to ATTTACACGTGTCGGA, for which the “relative binding free energy” value turned out to be 0.07 kcal/mol.
Regarding TGCTTCACGTGATTGT, the “relative binding free energy” value came out at 0.37 kcal/mol.
Consider AATTTCACGTGGTGCT, for which the “relative binding free energy” value amounted to 0.13 kcal/mol.
TAAATCACGTGGGCGT: the “relative binding free energy” value was determined as 0 kcal/mol.
As for ATGTCCACGTGTTGGT, the figure is 0 kcal/mol.
Under TAGGGCACGTGTGGTA stands -0.06 kcal/mol; under TCGTTCACGTGAGAGT, 0.29 kcal/mol.
Under TGTGACACGTGTCTAG stands -0.04 kcal/mol.
In the case of CGGGTCACGTGTCAGG, the “relative binding free energy” value worked out at 0.07 kcal/mol.
Regarding GGGTGCACGTGGTTGA, the “relative binding free energy” value is -0.07 kcal/mol.
On to GCTGGCACGTGAGTTA, for which the “relative binding free energy” value stood at 0.19 kcal/mol.
Regarding AAGGCCACGTGGTTGG, the “relative binding free energy” value is -0.33 kcal/mol.
With GTTGACACGTGCTAAG, the “relative binding free energy” value was found to be 0.11 kcal/mol.
Under AGCTTCACGTGTTGAG stands 0.13 kcal/mol; under TTTTACACGTGGCAAA, 0.18 kcal/mol.
Under GAGTGCACGTGTTTTG stands 0.08 kcal/mol; under ATGAACACGTGGATGG, -0.07 kcal/mol.
Under GTTTTCACGTGGTCTT stands 0.25 kcal/mol; under TTGTGCACGTGGGTCG, -0.14 kcal/mol.
Consider GGTATCACGTGTTGGC, for which the “relative binding free energy” value was 0.22 kcal/mol.
Regarding TGCCGCACGTGGCGTG, the “relative binding free energy” value is -0.13 kcal/mol.
As for AGGCGCACGTGGATTG, the figure is -0.04 kcal/mol.
Take TACTTCACGTGGGGTT: the “relative binding free energy” value is 0.03 kcal/mol.
With TAGGTCACGTGTTCTG, the “relative binding free energy” value came out at 0.06 kcal/mol.
Under AGCGGCACGTGCAGGG stands -0.26 kcal/mol; under AGTTTCACGTGGAGCG, 0.21 kcal/mol; under TCGGTCACGTGTGATT, 0.03 kcal/mol.
In the case of GGCGCCACGTGGCGTG, the “relative binding free energy” value is -0.17 kcal/mol.
Under TGGAACACGTGGGCTG stands -0.18 kcal/mol; under TGTCGCACGTGAGAAG, 0.28 kcal/mol; under TGGTGCACGTGTGGTT, 0.01 kcal/mol.
As for TTACTCACGTGGGTCG, the figure is 0.21 kcal/mol; as for GGGGGCACGTGTATCT, -0.08 kcal/mol; as for CTAATCACGTGATAGG, 0.3 kcal/mol.
As to GGGAGCACGTGTTGCT, the “relative binding free energy” value was -0.05 kcal/mol.
For the sequence GCAATCACGTGGGCGG, the “relative binding free energy” value was determined as 0.11 kcal/mol.
As for AGACTCACGTGTTTAT, the figure is 0.34 kcal/mol; as for ATGGGCACGTGGGGCG, -0.3 kcal/mol; as for TTGATCACGTGTGTCT, 0.07 kcal/mol.
With GTAAGCACGTGTTTAG, the “relative binding free energy” value worked out at 0.04 kcal/mol.
As for GGTGACACGTGAATAT, the figure is 0.32 kcal/mol.
Under TTTGGCACGTGTTCGG stands -0.01 kcal/mol.
CAGTGCACGTGGTGTG: the “relative binding free energy” value is 0.03 kcal/mol.
As for GTGATCACGTGTGAAA, the figure is 0.18 kcal/mol; as for AATCGCACGTGTGGAG, -0.03 kcal/mol; as for TATGTCACGTGGAATG, 0.09 kcal/mol.
As for TGGTCCACGTGAAGTT, the figure is 0.18 kcal/mol; as for TATATCACGTGGGTAT, -0.03 kcal/mol; as for AGCGCCACGTGTGGGT, -0.18 kcal/mol.
As for GTTGCCACGTGGGGGG, the figure is -0.27 kcal/mol; as for CTGGTCACGTGTTGGC, 0.17 kcal/mol; as for GTGCACACGTGAAAGG, 0.39 kcal/mol.
On to CTTGACACGTGTATGG, for which the “relative binding free energy” value is -0.02 kcal/mol.
As for ATTTTCACGTGAACTT, the figure is 0.37 kcal/mol.
As for GGTGACACGTGGTTAT, the figure is 0.03 kcal/mol.
In the case of CGGTCCACGTGTTAGG, the “relative binding free energy” value was 0.1 kcal/mol.
As for GGTGGCACGTGACTTG, the figure is 0.13 kcal/mol.
As for AGTGACACGTGGTGCT, the figure is -0.11 kcal/mol.
For the sequence GCTTTCACGTGAGAGG, the “relative binding free energy” value was found to be 0.46 kcal/mol.
As for GCGGGCACGTGGTGGA, the figure is -0.05 kcal/mol; as for GGCGTCACGTGGCGGC, 0.03 kcal/mol; as for TTGTACACGTGCTCAG, 0.11 kcal/mol.
As to AGTGTCACGTGGTAAC, the “relative binding free energy” value was determined as 0 kcal/mol.
As for AATTTCACGTGTATTT, the “relative binding free energy” value worked out at 0.23 kcal/mol.
In the case of GATATCACGTGAGTTA, the “relative binding free energy” value is 0.41 kcal/mol.
As for GCTTGCACGTGTTGAT, the figure is 0.02 kcal/mol.
Take GTAGACACGTGTTCTG: the “relative binding free energy” value stood at 0.07 kcal/mol.
As for AATAACACGTGGATTT, the figure is 0.06 kcal/mol; as for GTGGGCACGTGATCTT, 0.12 kcal/mol; as for TTGGACACGTGATGTC, 0.22 kcal/mol.
Regarding ACTTTCACGTGGTAGT, the “relative binding free energy” value was 0.33 kcal/mol.
Under TTAGACACGTGTTTGT stands -0.06 kcal/mol.
